Data reported in patent US20150253305A1, “METHODS OF IDENTIFYING COMPOUNDS FOR TREATING DEPRESSION AND OTHER RELATED DISEASES” (NORTHWESTERN UNIVERSITY, priority 2012, published 2015).

Tests used:
Sprague-Dawley rats [1] = assay: Conditioned place preference; details: 10 mg/kg IV
Sprague-Dawley rats [2] = assay: Prepulse inhibition (sensory-motor gating); details: ketamine 10 mg/kg IP; GLYX-13 10 mg/kg IV

Which results are given for `CNC1(c2ccccc2Cl)CCCCC1=O` (centres unmarked) [Ketamine, ketamine]?
conditioned place preference as measured by % time in drug paired chamber (Sprague-Dawley rats [1]): induced conditioned place preference; sensory-motor gating as measured by prepulse inhibition (Sprague-Dawley rats [2]): decreased sensory-motor gating
